PubChem BioAssay AID488969 (Vanderbilt High Throughput Screening Facility, 2010)
Over roughly 110,000 compounds, “z-score” has its median near -0.1; the highest 2% begin near 2. This is one part of the list.

molecular target: Metabotropic glutamate receptor 8 (Rattus norvegicus) (UniProt P70579); assay: rat mGluR8 modulators via GIRK flux, primary screen, cell-based, thallium flux, HTS (AID 488969); conditions: HEK293 rat mGluR8, GIRK (G protein-gated inwardly rectifying potassium channel) thallium flux, FluoZin2; at 10 µM; stronger effect = higher value; submaximal glutamate (EC20) added with thallium
UniProt P70579, sequence (P70579 whole entry, looked up): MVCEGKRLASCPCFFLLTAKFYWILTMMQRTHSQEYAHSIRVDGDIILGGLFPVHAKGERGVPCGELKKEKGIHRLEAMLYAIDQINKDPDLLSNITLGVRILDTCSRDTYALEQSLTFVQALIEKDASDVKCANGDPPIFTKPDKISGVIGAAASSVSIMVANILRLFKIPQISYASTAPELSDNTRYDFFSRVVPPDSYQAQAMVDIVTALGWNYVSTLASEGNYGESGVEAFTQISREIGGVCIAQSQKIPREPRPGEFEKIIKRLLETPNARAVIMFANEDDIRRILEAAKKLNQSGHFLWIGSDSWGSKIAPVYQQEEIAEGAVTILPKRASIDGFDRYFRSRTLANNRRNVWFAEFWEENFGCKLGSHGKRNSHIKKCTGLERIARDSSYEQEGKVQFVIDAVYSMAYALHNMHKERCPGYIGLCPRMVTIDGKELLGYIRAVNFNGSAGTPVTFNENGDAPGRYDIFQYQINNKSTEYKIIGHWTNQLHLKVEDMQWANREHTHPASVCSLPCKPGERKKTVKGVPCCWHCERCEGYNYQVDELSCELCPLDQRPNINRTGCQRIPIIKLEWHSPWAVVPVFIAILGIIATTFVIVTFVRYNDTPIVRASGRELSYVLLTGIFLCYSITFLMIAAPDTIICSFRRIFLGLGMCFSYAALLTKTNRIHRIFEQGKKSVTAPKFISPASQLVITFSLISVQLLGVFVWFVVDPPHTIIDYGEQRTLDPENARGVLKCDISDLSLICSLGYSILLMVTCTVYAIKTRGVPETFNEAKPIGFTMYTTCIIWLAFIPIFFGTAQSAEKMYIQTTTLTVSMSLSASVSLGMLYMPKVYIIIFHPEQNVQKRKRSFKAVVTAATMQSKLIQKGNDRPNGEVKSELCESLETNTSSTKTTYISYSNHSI

Row | SMILES | z-score
1 | CCOC(=O)c1cnc(-c2ccccc2)nc1N(C)C | -0.275
2 | Cc1cc([N+](=O)[O-])nn1CC(=O)N1c2ccccc2CC1C (stereo not given) | 0.534
3 | CC(C)(C)c1ccc(C(=O)c2c[nH]c(C(=O)NCC3CCCO3)c2)cc1 (stereo not given) | 0.303
4 | CCCc1nc2n[nH]c(N)c2c2c1COC(C)(C)C2 | 0.739
5 | COc1ccc(Cc2nnc(NS(C)(=O)=O)s2)cc1 | 0.376
6 | O=C(c1cccn(Cc2ccc(Cl)c(Cl)c2)c1=O)N1CCOCC1 | -0.0147
7 | CCNC(=S)N(Cc1ccc2c(c1)OCO2)C1CC(=O)N(c2ccc(OC)cc2)C1=O (stereo not given) | -0.17
8 | CCC(=O)NC(=S)Nc1ccc(Cl)cn1 | 0.168
9 | COc1ccc2nc(NC(=O)CSc3nnc(N)s3)sc2c1 | 0.075
10 | Cc1cc(Nc2nc3ccccc3nc2Cl)n(-c2ccccc2C)n1 | -0.459
11 | CC(=O)Nc1c(O)nc(SCC(=O)Nc2cccc(C)c2)[nH]c1=O | -0.267
12 | CN1CCN(c2ccccc2NC(=O)Cc2cn(C)c3ccccc23)CC1 | 1.39
13 | CN1CCCN(C(=O)c2ccc(Cl)c(S(=O)(=O)N(C)c3ccccc3)c2)CC1 | -0.561
14 | NC(=O)c1ccccc1NS(=O)(=O)Cc1ccc(Cl)cc1 | -0.0561
15 | CCOC(=O)C1=C(CSc2nccn2C)NC(=O)NC1c1ccc2c(c1)OCO2 (stereo not given) | -0.293
16 | CCOC(=O)C12CNC(=O)C(C(=O)OCC)(CNC1=O)C2 | -1.28
17 | CCSc1nc(O)c(C2OC(=O)c3c2ccc(OC)c3OC)c(=O)n1CC (stereo not given) | 0.442
18 | COc1ccc(/C(O)=C2/C(=O)C(=O)N(CCN3CCOCC3)C2c2ccc(C)cc2)cc1 (stereo not given) | 0.181
19 | CCCSc1nnc(-c2c[nH]c3ccccc23)n1C | 0.341
20 | CCOc1ccc(C2C(C(=O)c3cccs3)=C(O)C(=O)N2CCCn2ccnc2)cc1 (stereo not given) | 0.048
21 | COc1ccc(COc2ccccc2C(=O)NCc2ccccc2)cc1F | 0.112
22 | CCOC(=O)c1sc(NC(=O)CSc2nnnn2-c2ccc(C)cc2)c(C(=O)OCC)c1C | 1.03
23 | COC(=O)c1cc2n(n1)CCN(Cc1ccccc1F)C2=O | -0.243
24 | O=C(CCN1CCN(C(c2ccccc2)c2ccccc2)CC1)N/N=C/c1ccc(O)cc1O | -0.572
25 | O=C(NCc1ccc(F)cc1)c1cc(-c2cccs2)on1 | -0.103
26 | O=C(COC(=O)CN1C(=O)c2ccccc2C1=O)Nc1ncc(Cl)cc1Cl | 0.719
27 | Cn1c(=O)c2c(nc(NCC(O)CO)n2CCc2ccccc2)n(C)c1=O (stereo not given) | -0.168
28 | COc1cccc(C2CC(c3ccc(Cl)cc3Cl)Nc3nc(N)nn32)c1 (stereo not given) | 0.631
29 | O=C(CC1N=C2c3ccccc3N=C(SCc3ccc(Cl)cc3)N2C1=O)NCc1ccco1 (stereo not given) | -0.12
30 | O=C(O)C12CC3CC(C1)CC(n1ncc(N4CCN(c5ccccc5)CC4)c(Cl)c1=O)(C3)C2 | -0.147
